# Substitutions are numbered along the chain they refer to; changes in the protein carry UniProt numbers. The list shows a part of the results.
# T1: RBFOX1 RRM (Homo sapiens, UniProt Q9NWB1 109-208)
# T1 sequence: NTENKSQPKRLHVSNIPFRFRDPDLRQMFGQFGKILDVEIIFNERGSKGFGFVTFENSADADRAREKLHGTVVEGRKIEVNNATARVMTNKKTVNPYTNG
# B1: UGCUCUG (DNA:RNA)
# RNA: GGGAGACCGGAAUUCAGAUUGUCCUGCUCUGUUAAAUCCCGUCGUAGCCACCA
# DNA 1: CAATCTGAATTCCGGTCTCCC
# DNA 2: TGGTGGCTACGACGGGATT
# B2: GGCAAGC (DNA:RNA)
# RNA: B1 RNA with U25G, U28A, C29A, U30G, G31C
# DNA 1: CAATCTGAATTCCGGTCTCCC
# DNA 2: TGGTGGCTACGACGGGATT
# B3: AAGUCCU (DNA:RNA)
# RNA: B1 RNA with U25A, G26A, C27G, U30C, G31U
# DNA 1: CAATCTGAATTCCGGTCTCCC
# DNA 2: TGGTGGCTACGACGGGATT
# B4: UUCCUCC (DNA:RNA)
# RNA: B1 RNA with G26U, U28C, C29U, U30C, G31C
# DNA 1: CAATCTGAATTCCGGTCTCCC
# DNA 2: TGGTGGCTACGACGGGATT
# B5: AAUAGAU (DNA:RNA)
# RNA: GGGAGACCGGAAUUCAGAUUGUCCAAUAGAUUUAAAUCCCGUCGUAGCCACCA
# DNA 1: CAATCTGAATTCCGGTCTCCC
# DNA 2: TGGTGGCTACGACGGGATT
# B6: CCCUGUG (DNA:RNA)
# RNA: B1 RNA with U25C, G26C, C29G
# DNA 1: CAATCTGAATTCCGGTCTCCC
# DNA 2: TGGTGGCTACGACGGGATT
# B7: CUCUGCC (DNA:RNA)
# RNA: B1 RNA with U25C, G26U, C29G, U30C, G31C
# DNA 1: CAATCTGAATTCCGGTCTCCC
# DNA 2: TGGTGGCTACGACGGGATT
# B8: GCCCAUG (DNA:RNA)
# RNA: B1 RNA with U25G, G26C, U28C, C29A
# DNA 1: CAATCTGAATTCCGGTCTCCC
# DNA 2: TGGTGGCTACGACGGGATT
# B9: UUUCCUU (DNA:RNA)
# RNA: B1 RNA with G26U, C27U, U28C, G31U
# DNA 1: CAATCTGAATTCCGGTCTCCC
# DNA 2: TGGTGGCTACGACGGGATT
# B10: CUGAGAG (DNA:RNA)
# RNA: B5 RNA with A25C, A26U, U27G, U31G
# DNA 1: CAATCTGAATTCCGGTCTCCC
# DNA 2: TGGTGGCTACGACGGGATT
# B11: UCUCCGG (DNA:RNA)
# RNA: B1 RNA with G26C, C27U, U28C, U30G
# DNA 1: CAATCTGAATTCCGGTCTCCC
# DNA 2: TGGTGGCTACGACGGGATT
# B12: GAUCGUU (DNA:RNA)
# RNA: B5 RNA with A25G, A28C, A30U
# DNA 1: CAATCTGAATTCCGGTCTCCC
# DNA 2: TGGTGGCTACGACGGGATT
# B13: CGCGCCU (DNA:RNA)
# RNA: B1 RNA with U25C, U28G, U30C, G31U
# DNA 1: CAATCTGAATTCCGGTCTCCC
# DNA 2: TGGTGGCTACGACGGGATT
# B14: AAGCACC (DNA:RNA)
# RNA: B5 RNA with U27G, A28C, G29A, A30C, U31C
# DNA 1: CAATCTGAATTCCGGTCTCCC
# DNA 2: TGGTGGCTACGACGGGATT
# B15: GUGUCGA (DNA:RNA)
# RNA: B1 RNA with U25G, G26U, C27G, U30G, G31A
# DNA 1: CAATCTGAATTCCGGTCTCCC
# DNA 2: TGGTGGCTACGACGGGATT
# B16: AUCAGGA (DNA:RNA)
# RNA: B5 RNA with A26U, U27C, A30G, U31A
# DNA 1: CAATCTGAATTCCGGTCTCCC
# DNA 2: TGGTGGCTACGACGGGATT
# B17: GCGUAGG (DNA:RNA)
# RNA: B1 RNA with U25G, G26C, C27G, C29A, U30G
# DNA 1: CAATCTGAATTCCGGTCTCCC
# DNA 2: TGGTGGCTACGACGGGATT
# B18: UAGCAGU (DNA:RNA)
# RNA: B5 RNA with A25U, U27G, A28C, G29A, A30G
# DNA 1: CAATCTGAATTCCGGTCTCCC
# DNA 2: TGGTGGCTACGACGGGATT
# B19: UAACACG (DNA:RNA)
# RNA: B1 RNA with G26A, C27A, U28C, C29A, U30C
# DNA 1: CAATCTGAATTCCGGTCTCCC
# DNA 2: TGGTGGCTACGACGGGATT
# B20: CCCGCUG (DNA:RNA)
# RNA: B1 RNA with U25C, G26C, U28G
# DNA 1: CAATCTGAATTCCGGTCTCCC
# DNA 2: TGGTGGCTACGACGGGATT
# B21: GGAGGAC (DNA:RNA)
# RNA: B5 RNA with A25G, A26G, U27A, A28G, U31C
# DNA 1: CAATCTGAATTCCGGTCTCCC
# DNA 2: TGGTGGCTACGACGGGATT
# B22: CAACUUC (DNA:RNA)
# RNA: B5 RNA with A25C, U27A, A28C, G29U, A30U, U31C
# DNA 1: CAATCTGAATTCCGGTCTCCC
# DNA 2: TGGTGGCTACGACGGGATT
# B23: GUGUGUG (DNA:RNA)
# RNA: B1 RNA with U25G, G26U, C27G, C29G
# DNA 1: CAATCTGAATTCCGGTCTCCC
# DNA 2: TGGTGGCTACGACGGGATT
# B24: AAAUCAG (DNA:RNA)
# RNA: B5 RNA with U27A, A28U, G29C, U31G
# DNA 1: CAATCTGAATTCCGGTCTCCC
# DNA 2: TGGTGGCTACGACGGGATT
# B25: UCGCGAC (DNA:RNA)
# RNA: B5 RNA with A25U, A26C, U27G, A28C, U31C
# DNA 1: CAATCTGAATTCCGGTCTCCC
# DNA 2: TGGTGGCTACGACGGGATT
# B26: UGCAUUC (DNA:RNA)
# RNA: B1 RNA with U28A, C29U, G31C
# DNA 1: CAATCTGAATTCCGGTCTCCC
# DNA 2: TGGTGGCTACGACGGGATT
# B27: AUGACCU (DNA:RNA)
# RNA: B5 RNA with A26U, U27G, G29C, A30C
# DNA 1: CAATCTGAATTCCGGTCTCCC
# DNA 2: TGGTGGCTACGACGGGATT
# B28: AGACUCC (DNA:RNA)
# RNA: B5 RNA with A26G, U27A, A28C, G29U, A30C, U31C
# DNA 1: CAATCTGAATTCCGGTCTCCC
# DNA 2: TGGTGGCTACGACGGGATT
# B29: GUGAGGU (DNA:RNA)
# RNA: B5 RNA with A25G, A26U, U27G, A30G
# DNA 1: CAATCTGAATTCCGGTCTCCC
# DNA 2: TGGTGGCTACGACGGGATT
# B30: CAAUCGC (DNA:RNA)
# RNA: B1 RNA with U25C, G26A, C27A, U30G, G31C
# DNA 1: CAATCTGAATTCCGGTCTCCC
# DNA 2: TGGTGGCTACGACGGGATT
# B31: CGUAGUC (DNA:RNA)
# RNA: B5 RNA with A25C, A26G, A30U, U31C
# DNA 1: CAATCTGAATTCCGGTCTCCC
# DNA 2: TGGTGGCTACGACGGGATT
# Molecular target: T1, RBFOX1 RRM
# Assay: EMSA; HiTS-Eq, 1 nM pool, 10 min; buffer printed only for the single-RNA assays: 10 mM Tris pH 7.5, 150 mM NaCl, 3.4 mM EDTA, 0.001% NP-40, 30 C
# Settings: tags: His6 N-terminal (pET28a); label: 5' 32P
# In short: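 Purified RbFox RRM, wild type or mutant, was incubated for 10 min in 50 µL with 1 nM of a 5′-radiolabelled RNA pool carrying 7 randomized nucleotides, whose flanks were annealed to DNA oligonucleotides, over a series of increasing protein concentrations. Unbound RNA was resolved on 8% native PAGE, cut out, reverse-transcribed, barcoded by PCR and sequenced on an Illumina HiSeq 2500. Relative association constants were derived from changes in read counts for each RNA species versus the control reaction and normalised to the cognate motif.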
row,Binder,binding signal
1,B1,0.0266 KA relative to UGCAUGU
2,B2,0.0166 KA relative to UGCAUGU
3,B3,0.00459 KA relative to UGCAUGU
4,B4,0.00592 KA relative to UGCAUGU
5,B5,0.00406 KA relative to UGCAUGU
6,B6,0.004 KA relative to UGCAUGU
7,B7,0.0121 KA relative to UGCAUGU
8,B8,0.0116 KA relative to UGCAUGU
9,B9,0.0063 KA relative to UGCAUGU
10,B10,0.018 KA relative to UGCAUGU
11,B11,0.0159 KA relative to UGCAUGU
12,B12,0.0149 KA relative to UGCAUGU
13,B13,0.0116 KA relative to UGCAUGU
14,B14,0.00479 KA relative to UGCAUGU
15,B15,0.0182 KA relative to UGCAUGU
16,B16,0.00195 KA relative to UGCAUGU

row,Binder,binding signal
1,B17,0.0115 KA relative to UGCAUGU
2,B18,0.0129 KA relative to UGCAUGU
3,B19,0.00641 KA relative to UGCAUGU
4,B20,0.013 KA relative to UGCAUGU
5,B21,0.00695 KA relative to UGCAUGU
6,B22,0.00358 KA relative to UGCAUGU
7,B23,0.0282 KA relative to UGCAUGU
8,B24,0.00495 KA relative to UGCAUGU
9,B25,0.00468 KA relative to UGCAUGU
10,B26,0.0105 KA relative to UGCAUGU
11,B27,0.00461 KA relative to UGCAUGU
12,B28,0.00645 KA relative to UGCAUGU
13,B29,0.0137 KA relative to UGCAUGU
14,B30,0.0059 KA relative to UGCAUGU
15,B31,0.00852 KA relative to UGCAUGU

# From article PMC9911399, “Two distinct binding modes provide the RNA-binding protein RbFox with extraordinary sequence specificity”
